Results on 44 sequences are retold here after the supplement of paper PMC11417369.

This is one part of the list.

The assay relates to PfAP2-HC AP2 domain (GST-tagged). Kind of assay: gcPBM binding intensity (ln(normalized median fluorescence intensity)); higher = stronger DNA binding. The method in brief:
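Alexa488 anti-GST antibody, scanned at 488 nm, detected GST-tagged P. falciparum DNA-binding domains that had been expressed in E. coli and incubated for 1 h on an Agilent 4 × 180k array. The array carried primer-extended double-stranded 36-bp intergenic genomic probes and negative controls. Binding intensity is the highest Masliner-normalised natural-log median intensity across replicate spots of either orientation of each probe.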
Consider “TTTATATTATACGCACTAATATATATATATATATAT [TGCATGCA_negctrl_site47]”, for which the “gcPBM binding intensity (ln)” value was found to be 9.75.
With “ATATAACACAAGGGCACACATATACCTTTCCTTTTT [CACACA_site412]” the figure was 9.9.
With “CTTCTTGTAAAATTTGCATGTAATTAAAAGAGAATG [TGCATGCA_site484]” the figure was 9.33; with “GCCTTTTAGTATTTCACACACGTAAATGAGTATATC [CACACA_site4748]”, 9.96; with “TTCCCTATCTTTTCAGTGCATTTTGTTTCCTACCTT [GTGCAC_site9813]”, 9.76.
Then “ATAAAATTTATGACTTGTACATGTAAATAAAATATA [XGTACX_site762]”, with 9.73.
For “TTTAAATATATATATTGTACAAAAAAAAATAATAAA [XGTACX_site4759]”, the “gcPBM binding intensity (ln)” value is 9.59.
With “TGTAGAACTCAATATTGTACATTATATAAAATGGGA [XGTACX_site3857]” the figure was 9.59; with “ATATATATATATTGTACACACATTTATGCATATATA [CACACA_site5738]”, 10.2; with “TTTTTTTGCATTTCATGTACATATATTGAGCTTAAA [XGTACX_site8485]”, 9.6.
As to “ATATTACAGTACAATACATGCATATGGAAAAAAAAA [TGCATGCA_site72]”, the “gcPBM binding intensity (ln)” value stood at 9.81.
As for “ATAAAGAATATAAATACACACTTAAATATAGATTAT [CACACA_site7804]”, the “gcPBM binding intensity (ln)” value was 9.91.
As for “ATTGGTTCCCCTCTCTTTTCAATATATTTTTTTTTT [XGTACX_negctrl_site259]”, the “gcPBM binding intensity (ln)” value was found to be 9.69.
With “GATATAGGGCGTATGTTAATCGTGAAAGAGTGTCTT [GTGCAC_negctrl_site102]” the figure was 9.63; with “TTCAAATGATTTATGTGTACATAAAATTATTTTTTA [XGTACX_site107]”, 9.48.
Then “AAAAAATTAAAAATCACACATAAATATATATAAAAA [CACACA_site4192]”, with 9.69.
Then “TAATGAAGCTTATGCACACGTTCATTATTTATATTA [CACACA_site3219]”, with 9.66; and “ATTTATATTACCCTTGCATGTAGGTGCAATTTTTTT [TGCATGCA_site757]”, with 9.88; and “CATTTTGTTTTAAAGTGTACATTATGTAATATAAAA [XGTACX_site647]”, with 9.33.
As to “TTTTTATAGGTAAAAACACACGCTAAAAATAATTAA [CACACA_site3731]”, the “gcPBM binding intensity (ln)” value was 9.53.
With “AATAAATATATATTCACACACAAACATATATATATA [CACACA_site4023]” the figure was 10; with “AAATAAATAAATAAATAAACAAATATGTATAAATGG [XGTACX_negctrl_site153]”, 10.2; with “AGGTACTTTTTTAAAACACACATATAATAAATACAC [CACACA_site4730]”, 9.81.
With “TCAACTATCAATATAGTGCATTTTTTTTGGAAAACC [GTGCAC_site9927]” the figure was 9.34.
With “TATCAAAATTAGTATACACACAAAATTAATCAAATA [CACACA_site7117]” the figure was 9.86; with “ATAAGATTAAACATTGCACACAGAAATATATTTTCT [CACACA_site8743]”, 9.97; with “TATATATATATATATTGTACATATGTAACCTTTTAA [XGTACX_site3914]”, 9.55.
For “CCTATATAATATATTTGTACTTAATAATTAAAGTGT [XGTACX_site5151]”, the “gcPBM binding intensity (ln)” value was determined as 9.56.
Consider “TTTTTTAGATTACATAAATATAAATATAAATATATA [GTGCAC_negctrl_site459]”, for which the “gcPBM binding intensity (ln)” value was 9.13.
Then “TAAAATAAAAATTTATGTACACATAAAAAAACAAAA [XGTACX_site1112]”, with 9.75; and “GAGAGTACCTATATTGCATGCAGACTTTTTAAATAT [TGCATGCA_site564]”, with 9.65.
With “TTTTTTTTTTTTTGTAGTACATTATGTATATTTTTA [XGTACX_site7810]” the figure was 9.55; with “TTAATAAGAGAGCAATAGGTGGACTGTTTCTTTTAT [CACACA_negctrl_site1239]”, 9.72.
With “GTTAAAATAATATGGTGTACAAATATATAAGTTCAT [XGTACX_site3262]”, the “gcPBM binding intensity (ln)” value came out at 9.83.
With “ATATATATATATAAAAGTACTTATTTTTATTTACAT [XGTACX_site4299]” the figure was 9.76; with “AAAAATATAATATATCTAAAATTTTTCATTAAATAT [XGTACX_negctrl_site274]”, 9.52.
With “ACATATATATATTTATATATATATATATATATGTGA [CACACA_negctrl_site613]” the figure was 9.47; with “ATAAATAAAAATACATGAACAGGTCAGGTTATTTTT [CACACA_negctrl_site1007]”, 9.61.
Turning to “TTATATATAGAATAAACATGCATTTGTATATGAATA [TGCATGCA_site604]”, the “gcPBM binding intensity (ln)” value worked out at 9.58.
With “TTTTTTTTTTTTTTTACACACTATAGGGAAAAAAAA [CACACA_site1916]” the figure was 9.27; with “TGTATATAAACAAGGGGTACAATAATATAAATAAAT [XGTACX_site8675]”, 9.89; with “TCATATTAATTTGATAGTACATATACTTTGAAGTCC [XGTACX_site3767]”, 9.5.
Then “TCACATACATTACTTACACACCATATTAATATATAC [CACACA_site8047]”, with 9.94.
For the sequence “AATAAAAAATAAAAAATAAACAGTATACATATATAT [GTGCAC_negctrl_site31]”, the “gcPBM binding intensity (ln)” value worked out at 9.79.
